{"source": "the supplement of paper PMC3334620", "note": "Whole data set: some 33,000 sequences, median “E-score (-0.5 to 0.5)” near -0.04, cut for the highest 2% near 0.36. This is one part of the list.", "data": [{"target": "T1, Hmlalpha2 (UniProt P0CY09)", "T1 sequence": "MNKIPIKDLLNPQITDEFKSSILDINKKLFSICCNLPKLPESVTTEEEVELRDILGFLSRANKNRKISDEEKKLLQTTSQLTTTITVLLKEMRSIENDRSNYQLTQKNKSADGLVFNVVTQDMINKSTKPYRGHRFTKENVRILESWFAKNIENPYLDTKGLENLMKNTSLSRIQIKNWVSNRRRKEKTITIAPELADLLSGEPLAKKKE", "assay": "PBM E-score (8-mer binding enrichment) (E-score (-0.5 to 0.5)); higher = stronger / more preferred TF binding; most listed sequences are background and not binding sites", "conditions": "protein concentration: 200 nM; construct: GST-full length", "summary_of_the_method": "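Each ungapped eight-base word and its reverse complement, pooled, received an E-score from the Universal PBM Analysis Suite. Underlying scans, normalised with masliner, recorded fluorescent anti-GST bound to GST-tagged yeast transcription factors. These were applied at about 100-200 nM to universal all-10-mer Agilent arrays double-stranded by primer extension.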", "values": [{"sequence": "AAGGCATC", "PBM E-score": -0.142}, {"sequence": "CTAAAGCA", "PBM E-score": 0.0201}, {"sequence": "ATCAGGTG", "PBM E-score": -0.0698}, {"sequence": "ATGTATCG", "PBM E-score": 0.323}, {"sequence": "GTGTAAAC", "PBM E-score": 0.474}, {"sequence": "CTAGAGTC", "PBM E-score": -0.305}, {"sequence": "AGAGACTC", "PBM E-score": -0.216}, {"sequence": "CGAGTGCG", "PBM E-score": -0.102}, {"sequence": "AGGACATA", "PBM E-score": 0.0838}, {"sequence": "GTATCCTA", "PBM E-score": 0.0388}, {"sequence": "GTCCTGTA", "PBM E-score": 0.14}, {"sequence": "GACATAAA", "PBM E-score": 0.267}, {"sequence": "CACAGACG", "PBM E-score": 0.115}, {"sequence": "TACATGAA", "PBM E-score": 0.45}, {"sequence": "CACCTCGG", "PBM E-score": -0.121}, {"sequence": "ACTGGACT", "PBM E-score": -0.04}, {"sequence": "GGAACTCC", "PBM E-score": -0.255}, {"sequence": "AGTAGCTC", "PBM E-score": -0.151}, {"sequence": "ATATGCCG", "PBM E-score": -0.0441}, {"sequence": "GTAAATAA", "PBM E-score": 0.357}, {"sequence": "TAGTTTCA", "PBM E-score": 0.0755}, {"sequence": "GACAGTCA", "PBM E-score": -0.158}, {"sequence": "GCCCGTCC", "PBM E-score": -0.245}, {"sequence": "ACTTCTAA", "PBM E-score": -0.0759}, {"sequence": "ACGGTACG", "PBM E-score": 0.096}, {"sequence": "TACTTGCA", "PBM E-score": 0.162}, {"sequence": "AGGTTCTG", "PBM E-score": -0.0953}, {"sequence": "AGTCGAAA", "PBM E-score": -0.0792}, {"sequence": "GGGTCTGA", "PBM E-score": -0.249}, {"sequence": "CCTACATA", "PBM E-score": 0.13}, {"sequence": "GTGGCATA", "PBM E-score": -0.0694}, {"sequence": "GAGAAGAA", "PBM E-score": -0.0573}, {"sequence": "TGCCAGAA", "PBM E-score": -0.155}, {"sequence": "AGCGATTG", "PBM E-score": -0.193}, {"sequence": "ACTGAGAG", "PBM E-score": -0.025}, {"sequence": "GTACCCGA", "PBM E-score": -0.208}, {"sequence": "ACACTGCT", "PBM E-score": 0.0104}, {"sequence": "CTCTCCGA", "PBM E-score": -0.104}, {"sequence": "GATACACA", "PBM E-score": 0.214}, {"sequence": "CATTTTGG", "PBM E-score": -0.0482}, {"sequence": "AGAAATAG", "PBM E-score": 0.119}, {"sequence": "CTAAATCA", "PBM E-score": -0.0453}, {"sequence": "GTATTCAA", "PBM E-score": 0.283}, {"sequence": "ACGGAGCG", "PBM E-score": -0.0183}, {"sequence": "AACAGAAT", "PBM E-score": -0.0385}, {"sequence": "ACTTTAAT", "PBM E-score": 0.057}, {"sequence": "ATGCAGTA", "PBM E-score": 0.136}, {"sequence": "GAAAGAGA", "PBM E-score": -0.201}, {"sequence": "CTTCTAGA", "PBM E-score": -0.132}, {"sequence": "ACCGTCCC", "PBM E-score": -0.206}, {"sequence": "ATCCGCTG", "PBM E-score": -0.2}, {"sequence": "AACTTCCG", "PBM E-score": 0.0138}, {"sequence": "AAGATAGC", "PBM E-score": -0.0988}, {"sequence": "AAGCTTTG", "PBM E-score": -0.0782}, {"sequence": "TCAGGTCA", "PBM E-score": -0.138}, {"sequence": "ATGTGAGC", "PBM E-score": -0.048}, {"sequence": "ACTCGTGA", "PBM E-score": -0.0608}, {"sequence": "AACGTTCG", "PBM E-score": -0.0776}, {"sequence": "CGTCCCGC", "PBM E-score": -0.0473}, {"sequence": "CACCTGCG", "PBM E-score": -0.0191}, {"sequence": "ATATTGGC", "PBM E-score": 0.0118}, {"sequence": "AAGTGCGT", "PBM E-score": 0.0137}, {"sequence": "CTCGGCAG", "PBM E-score": -0.158}, {"sequence": "CCGGGTGA", "PBM E-score": -0.251}, {"sequence": "AAGCACCT", "PBM E-score": -0.0818}, {"sequence": "GCATAAAA", "PBM E-score": 0.132}, {"sequence": "AAGCTACA", "PBM E-score": 0.158}, {"sequence": "CATCACGC", "PBM E-score": 0.0134}, {"sequence": "ATGCTTAA", "PBM E-score": 0.0959}, {"sequence": "GACCCTTA", "PBM E-score": -0.0738}, {"sequence": "GAAACCTA", "PBM E-score": -0.115}, {"sequence": "AAGATTAA", "PBM E-score": 0.145}, {"sequence": "CATTCCTC", "PBM E-score": -0.0357}, {"sequence": "AAATGCGT", "PBM E-score": 0.132}, {"sequence": "AGCGGCCC", "PBM E-score": -0.385}, {"sequence": "TCATGTAA", "PBM E-score": 0.482}, {"sequence": "GAGTCTGA", "PBM E-score": -0.337}, {"sequence": "CATAGACA", "PBM E-score": 0.128}, {"sequence": "ATTTGTAC", "PBM E-score": 0.195}, {"sequence": "ATGTTGCC", "PBM E-score": -0.0276}, {"sequence": "GCGTTCAC", "PBM E-score": 0.0228}, {"sequence": "CAAGCCTG", "PBM E-score": 0.0359}, {"sequence": "ACTACAGT", "PBM E-score": 0.238}, {"sequence": "ATAGAGGG", "PBM E-score": -0.0748}, {"sequence": "ACTTCTCC", "PBM E-score": -0.253}, {"sequence": "ATACCTAT", "PBM E-score": 0.0748}, {"sequence": "AATGCAAG", "PBM E-score": 0.0745}, {"sequence": "CGTCTCAC", "PBM E-score": -0.224}, {"sequence": "CGAGAGAC", "PBM E-score": -0.234}, {"sequence": "CAATCCGC", "PBM E-score": -0.114}, {"sequence": "TGGTAAAA", "PBM E-score": 0.266}, {"sequence": "ACTAAGAT", "PBM E-score": 0.139}, {"sequence": "AACATCAA", "PBM E-score": 0.294}, {"sequence": "GCGAGTGA", "PBM E-score": -0.0109}, {"sequence": "CGTAGGTC", "PBM E-score": -0.0792}, {"sequence": "AATCACGC", "PBM E-score": 0.198}, {"sequence": "ATTGGGCG", "PBM E-score": -0.13}, {"sequence": "CTATTTAC", "PBM E-score": 0.323}, {"sequence": "ATATATTG", "PBM E-score": 0.0447}, {"sequence": "GAGCTGAA", "PBM E-score": -0.217}, {"sequence": "TATTGCGA", "PBM E-score": 0.0191}, {"sequence": "CTGGTATA", "PBM E-score": -0.223}, {"sequence": "GGCTTATA", "PBM E-score": -0.0133}, {"sequence": "TCCCGCCA", "PBM E-score": -0.22}, {"sequence": "ACCGAGTA", "PBM E-score": 0.045}, {"sequence": "CACCCAGG", "PBM E-score": -0.162}, {"sequence": "AAGCTAAG", "PBM E-score": -0.0323}, {"sequence": "CCACGGAG", "PBM E-score": -0.109}, {"sequence": "TCCAAGAA", "PBM E-score": -0.13}, {"sequence": "CCAGTTTC", "PBM E-score": -0.269}, {"sequence": "TTCTCAAA", "PBM E-score": 0.00861}, {"sequence": "GGTCGTCA", "PBM E-score": -0.0493}, {"sequence": "AACTACCA", "PBM E-score": -0.0255}, {"sequence": "GCTCTGCA", "PBM E-score": -0.174}, {"sequence": "AAGCTTAA", "PBM E-score": 0.041}, {"sequence": "CACCACGG", "PBM E-score": -0.144}, {"sequence": "CTAAACCC", "PBM E-score": -0.239}, {"sequence": "ATTTTGGG", "PBM E-score": -0.178}, {"sequence": "CAAACTTA", "PBM E-score": 0.183}, {"sequence": "CACATACA", "PBM E-score": 0.33}, {"sequence": "CTAGATCC", "PBM E-score": -0.22}, {"sequence": "CCTAAACC", "PBM E-score": -0.273}, {"sequence": "GCCTGTGA", "PBM E-score": -0.175}, {"sequence": "ACGGTGAA", "PBM E-score": 0.0542}, {"sequence": "GTCGTCAC", "PBM E-score": -0.0539}, {"sequence": "ATTATTAG", "PBM E-score": 0.00734}, {"sequence": "GGTCTCAA", "PBM E-score": -0.166}, {"sequence": "CGACACAG", "PBM E-score": 0.168}, {"sequence": "AGCATGCT", "PBM E-score": 0.151}, {"sequence": "CCCAACAA", "PBM E-score": 0.123}, {"sequence": "ACCGCCGG", "PBM E-score": -0.412}, {"sequence": "GAATTAAA", "PBM E-score": 0.0754}, {"sequence": "TAGTACTA", "PBM E-score": 0.184}, {"sequence": "GTTGTTCA", "PBM E-score": 0.151}, {"sequence": "CTACGTTA", "PBM E-score": 0.316}, {"sequence": "AGCACTTA", "PBM E-score": 0.0175}, {"sequence": "ATTAGGTC", "PBM E-score": 0.0453}, {"sequence": "AACGCATA", "PBM E-score": 0.211}, {"sequence": "CTGTGTTC", "PBM E-score": 0.304}, {"sequence": "ACCGACGG", "PBM E-score": -0.0642}, {"sequence": "CGCAATAG", "PBM E-score": -0.0126}, {"sequence": "CGATGGCA", "PBM E-score": -0.218}, {"sequence": "TCCGAAGA", "PBM E-score": -0.131}, {"sequence": "CAATACCC", "PBM E-score": -0.0298}, {"sequence": "AACAGTGA", "PBM E-score": -0.063}, {"sequence": "GTACAGTA", "PBM E-score": 0.131}, {"sequence": "CCCCCGCA", "PBM E-score": -0.167}, {"sequence": "AGTCACAG", "PBM E-score": 0.00738}, {"sequence": "TTACGCAA", "PBM E-score": 0.391}, {"sequence": "CAGAAAGG", "PBM E-score": -0.0817}, {"sequence": "GTGATAAA", "PBM E-score": 0.0295}, {"sequence": "GCGTCCAA", "PBM E-score": -0.0357}, {"sequence": "TAGCACAA", "PBM E-score": 0.167}, {"sequence": "TGGCGAAA", "PBM E-score": 0.0356}, {"sequence": "CTTCAATA", "PBM E-score": 0.173}, {"sequence": "CAGGGAAG", "PBM E-score": -0.212}, {"sequence": "CGGAGAAC", "PBM E-score": -0.0722}, {"sequence": "TACGCTCA", "PBM E-score": 0.103}, {"sequence": "GAATTTGA", "PBM E-score": -0.109}, {"sequence": "GAGAATCC", "PBM E-score": -0.193}, {"sequence": "TAAGACTA", "PBM E-score": 0.0176}, {"sequence": "ACCTCTCC", "PBM E-score": -0.191}, {"sequence": "CTTAATAC", "PBM E-score": 0.214}, {"sequence": "CGTCTCAG", "PBM E-score": 0}, {"sequence": "AAAGATCG", "PBM E-score": -0.0675}, {"sequence": "AACTCGAG", "PBM E-score": 0.0347}, {"sequence": "GAAGGGAA", "PBM E-score": -0.367}, {"sequence": "CGAGCGTA", "PBM E-score": 0.161}, {"sequence": "CATAGCTC", "PBM E-score": 0.00757}, {"sequence": "ACAGTGGA", "PBM E-score": -0.0616}, {"sequence": "ACGATGTA", "PBM E-score": 0.376}, {"sequence": "CAGATTAC", "PBM E-score": 0.303}]}]}
